Earlier results in publication PMC9427252, “Study on the Absorption of Arsenic Species in Realgar Based on the Form and Valence” (Evidence-based Complementary and Alternative Medicine : eCAM, 2022).

Details: cited from earlier work

O[As](O)O [AsIII, Arsenite]
pKa: 9.2
